The source of these data is the supplement of paper PMC8821664.

Structures are written as SMILES. Counter-ions that a name gives are not always drawn. Some of the results follow. Repeats are few or missing, and single values can be far off.

The experiment deals with Beas-2B AQP5-HiBiT reporter cells. Description: AQP5-HiBiT luminescence relative to vehicle (ratio to vehicle); higher = higher AQP5-HiBiT protein abundance. The note with it: 10 µM; 18 h. (In general: With HiBiT, luminescence reflects the tagged protein that the partner subunit can reach.)
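Note: monoclonal Beas-2B line stably carrying CMV promoter-driven AQP5-HiBiT, 5,000 cells per well in 384-well plates, lytic HiBiT plus LgBiT NanoLuc luminescence, FDA-approved drug library screen.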

In the case of `C[C@]12CC[C@@H]3c4ccc(O)cc4CC[C@H]3[C@@H]1CC[C@@H]2OC(=O)CCC1CCCC1` [Depofemin], the AQP5-HiBiT luminescence came out at 0.844.

Turning to `CN(CCOc1ccc(CC2SC(=O)NC2=O)cc1)c1ccccn1` (centres undefined) [Rosiglitazone], the AQP5-HiBiT luminescence turned out to be 1.06.

Turning to `Cc1ncc(CO)c(CO)c1O` [Pyridoxine hydrochloride], the AQP5-HiBiT luminescence worked out at 1.

Take `Nc1nc(N)c2nc(-c3ccccc3)c(N)nc2n1` [Ademine]: the AQP5-HiBiT luminescence came to 0.826.

As to `CCCN1CCCC[C@H]1C(=O)Nc1c(C)cccc1C` [Ropivacaine], the AQP5-HiBiT luminescence amounted to 1.04.

On to `CCOC(=O)C1=C(C)NC(C)=C(C(=O)OC)C1c1cccc(Cl)c1Cl` (centres undefined) [Felodipine], for which the AQP5-HiBiT luminescence is 0.458.

For `CCC(=O)OCC(=O)[C@@]1(OC(=O)CC)[C@@H](C)C[C@H]2[C@@H]3CCC4=CC(=O)C=C[C@]4(C)[C@@]3(F)[C@@H](O)C[C@@]21C` [Betamethasone dipropionate], the AQP5-HiBiT luminescence was 0.902.

Consider `NC[C@@H]1O[C@H](O[C@H]2[C@@H](O)[C@H](O[C@@H]3[C@@H](O)[C@H](N)C[C@H](N)[C@H]3O[C@H]3O[C@H](CO)[C@@H](O)[C@H](O)[C@H]3N)O[C@@H]2CO)[C@H](N)[C@@H](O)[C@@H]1O` [Paromomycin Sulfate], for which the AQP5-HiBiT luminescence was found to be 0.853.

In the case of `CC1(C)S[C@@H]2[C@H](NC(=O)[C@H](NC(=O)N3CCNC3=O)c3ccccc3)C(=O)N2[C@H]1C(=O)O` [Azlocillin sodium], the AQP5-HiBiT luminescence came to 1.1.

With `C#C[C@]1(O)CC[C@H]2[C@@H]3CCC4=CC(=O)CC[C@@H]4[C@H]3C(=C)C[C@@]21CC` [Etonogestrel], the AQP5-HiBiT luminescence was 0.678.

Consider `CN(C)CCOC(c1ccccc1)c1ccccc1.Cn1c(=O)c2[nH]c(Cl)nc2n(C)c1=O` [Dimenhydrinate], for which the AQP5-HiBiT luminescence was found to be 0.872.

`CNC(=O)c1cc(Oc2ccc(NC(=O)Nc3ccc(Cl)c(C(F)(F)F)c3)cc2)ccn1` [Sorafenib tosylate]: the AQP5-HiBiT luminescence amounted to 0.246.

In the case of `Nc1nc2[nH]cc(CCc3ccc(C(=O)O)cc3)c2c(=O)[nH]1` [Pemetrexed acid], the AQP5-HiBiT luminescence stood at 0.852.

On to `COc1cc2nccc(Oc3ccc(NC(=O)C4(C(=O)Nc5ccc(F)cc5)CC4)cc3)c2cc1OC`, for which the AQP5-HiBiT luminescence is 0.417.

`C[C@H](Cc1cc2c(c(C(N)=O)c1)N(CCCO)CC2)NCCOc1ccccc1OCC(F)(F)F` [Silodosin]: the AQP5-HiBiT luminescence worked out at 1.54.

Consider `CC(CN(C)C)CN1c2ccccc2Sc2ccccc21` (centres undefined) [Trimeprazine tartrate], for which the AQP5-HiBiT luminescence is 2.31.

In the case of `CC1=C(C(=O)O)N2C(=O)[C@@H](NC(=O)[C@H](N)C3=CCC=CC3)[C@H]2SC1` [Cephradine], the AQP5-HiBiT luminescence worked out at 1.09.

For the molecule `N[C@@H](CCC(=O)N[C@@H](CS)C(=O)NCC(=O)O)C(=O)O` [Glutathione], the AQP5-HiBiT luminescence was 0.9.

In the case of `CC(C)NCC(O)c1ccc(O)c(O)c1` (centres undefined) [Isoprenaline hydrochloride], the AQP5-HiBiT luminescence was 1.03.

In the case of `Cc1cc(C)nc(NS(=O)(=O)c2ccc(N)cc2)n1` [Sulfamethazine], the AQP5-HiBiT luminescence came out at 0.656.

Consider `Cc1ccsc1C(=CCCN1CCC[C@@H](C(=O)O)C1)c1sccc1C` [Tiagabine], for which the AQP5-HiBiT luminescence came out at 0.717.

On to `COc1ccc(OC)c(C(O)CNC(=O)CN)c1` (centres undefined) [Midodrine hydrochloride], for which the AQP5-HiBiT luminescence worked out at 1.02.

Consider `CCN1CC(CCN2CCOCC2)C(c2ccccc2)(c2ccccc2)C1=O` (centres undefined) [Doxapram hydrochloride], for which the AQP5-HiBiT luminescence was found to be 1.17.

For the molecule `Nc1ccn([C@H]2CC[C@@H](CO)O2)c(=O)n1` [Zalcitabine], the AQP5-HiBiT luminescence was found to be 0.86.

In the case of `COC(=O)[C@@H]1CC2=CC(=O)CC[C@]2(C)[C@@]23O[C@@H]2C[C@@]2(C)[C@@H](CC[C@@]24CCC(=O)O4)[C@H]13` [Eplerenone], the AQP5-HiBiT luminescence was 0.767.

As for `C#CCN(C)Cc1ccccc1` [Pargyline], the AQP5-HiBiT luminescence worked out at 0.624.

Turning to `CNC(=O)c1cnn(-c2nc(N)c3ncn([C@@H]4O[C@H](CO)[C@@H](O)[C@H]4O)c3n2)c1` [Regadenoson], the AQP5-HiBiT luminescence was determined as 0.855.

Consider `CO[C@H]1/C=C/O[C@@]2(C)Oc3c(C)c(O)c4c(O)c(c(/C=N/N5CCN(C6CCCC6)CC5)c(O)c4c3C2=O)NC(=O)/C(C)=C\C=C\[C@H](C)[C@H](O)[C@@H](C)[C@@H](O)[C@@H](C)[C@H](OC(C)=O)[C@@H]1C` [Rifapentine], for which the AQP5-HiBiT luminescence was 0.985.

Consider `N[C@@H](Cc1cc(I)c(Oc2ccc(O)c(I)c2)c(I)c1)C(=O)O` [Liothyronine sodium], for which the AQP5-HiBiT luminescence turned out to be 1.01.

On to `CCOc1ccc(Cc2cc([C@@H]3O[C@H](CO)[C@@H](O)[C@H](O)[C@H]3O)ccc2Cl)cc1` [Dapagliflozin], for which the AQP5-HiBiT luminescence was found to be 0.886.

As to `CCOC(=O)[C@H](CCc1ccccc1)N[C@@H](C)C(=O)N1CCC[C@H]1C(=O)O` [Enalapril], the AQP5-HiBiT luminescence stood at 0.881.

As for `CC(C)NCC(O)c1ccc(NS(C)(=O)=O)cc1` (centres undefined) [Sotalol hydrochloride], the AQP5-HiBiT luminescence is 1.66.

As to `CC(C)[C@H]1CC[C@H](C(=O)N[C@H](Cc2ccccc2)C(=O)O)CC1` [Nateglinide], the AQP5-HiBiT luminescence was found to be 1.06.

As for `CCn1cc(C(=O)O)c(=O)c2cc(F)c(N3CCNCC3)nc21` [Enoxacin], the AQP5-HiBiT luminescence was found to be 0.688.

Turning to `CCOC(=O)c1ncn2c1CN(C)C(=O)c1cc(F)ccc1-2` [Flumazenil], the AQP5-HiBiT luminescence is 1.08.

As for `OC(CCN1CCCCC1)(c1ccccc1)C1CC2C=CC1C2` (centres undefined) [Bipariden], the AQP5-HiBiT luminescence amounted to 0.767.

As to `NCCCC(O)(P(=O)(O)O)P(=O)(O)O` [Alendronate], the AQP5-HiBiT luminescence is 0.818.

Consider `CC#C[C@]1(O)CC[C@H]2[C@@H]3CCC4=CC(=O)CCC4=C3[C@@H](c3ccc(N(C)C)cc3)C[C@@]21C` [Mifepristone], for which the AQP5-HiBiT luminescence worked out at 0.813.

Take `CC(=O)c1c(C)c2cnc(Nc3ccc(N4CCNCC4)cn3)nc2n(C2CCCC2)c1=O` [Palbociclib]: the AQP5-HiBiT luminescence was 0.728.

Regarding `O=S(=O)(O)Oc1ccc(C(c2ccc(OS(=O)(=O)O)cc2)c2ccccn2)cc1` [Sodium picosulfate monohydrate], the AQP5-HiBiT luminescence is 0.823.

`COc1cc2nc(N3CCN(C(=O)C4COc5ccccc5O4)CC3)nc(N)c2cc1OC` (centres undefined) [Doxazosin mesylate]: the AQP5-HiBiT luminescence came to 1.22.

Turning to `NS(=O)(=O)c1cc2c(cc1Cl)N=C(CSCc1ccccc1)NS2(=O)=O` [Benzthiazide], the AQP5-HiBiT luminescence turned out to be 1.14.

`CC(C)N1CCN(c2ccc(OCC3COC(Cn4cncn4)(c4ccc(Cl)cc4Cl)O3)cc2)CC1` (centres undefined) [Terconazole]: the AQP5-HiBiT luminescence was found to be 2.39.

Take `S=c1[nH]cnc2nc[nH]c12` [Mercaptopurine (6-MP)]: the AQP5-HiBiT luminescence worked out at 1.06.

Take `COc1ccc(CC(C)NCC(O)c2ccc(O)c(NC=O)c2)cc1` (centres undefined) [Formoterol]: the AQP5-HiBiT luminescence was determined as 0.802.

For `CO[C@@H]1[C@@H](OC(N)=O)[C@@H](O)[C@H](Oc2ccc3c(O)c(NC(=O)c4ccc(O)c(CC=C(C)C)c4)c(=O)oc3c2C)OC1(C)C` [Albamycinsodium], the AQP5-HiBiT luminescence was found to be 0.59.

As to `O=C(O)c1cc(-c2ccc(F)cc2F)ccc1O` [Diflunisal], the AQP5-HiBiT luminescence is 1.02.

Turning to `CN(C)CCOC(c1ccc(Cl)cc1)c1ccccn1` (centres undefined) [Carbinoxamine Maleate Salt], the AQP5-HiBiT luminescence amounted to 1.52.

Take `O=NO` [Sodium nitrite]: the AQP5-HiBiT luminescence is 1.04.

On to `CC(=O)N(O)CCCCCNC(=O)CCC(=O)N(O)CCCCCNC(=O)CCC(=O)N(O)CCCCCN` [Deferoxamine Mesylate], for which the AQP5-HiBiT luminescence came to 0.808.

For `CN(C)c1ccc(C(=C2C=CC(=[N+](C)C)C=C2)c2ccc(N(C)C)cc2)cc1` [Crystal Violet], the AQP5-HiBiT luminescence was 5.21.

`Nc1ccc(/N=N/c2ccccc2)c(N)n1` [Phenazopyridine hydrochloride]: the AQP5-HiBiT luminescence was determined as 0.902.

Turning to `CC(C)(C)NC(=O)[C@H]1CC[C@H]2[C@@H]3CC[C@H]4NC(=O)C=C[C@]4(C)[C@H]3CC[C@]12C` [Finasteride], the AQP5-HiBiT luminescence was found to be 0.913.

As to `C[N+](C)(C)CC(=O)O` [Betaine hydrochloride], the AQP5-HiBiT luminescence was 1.01.
